# In PubChem BioAssay (Tox21):
# Values joined by “and” are separate entries in the source; they are usually repeats but may differ in a detail not shown here. Equal entries are not always repeated. Inconclusive results, whose numbers are uncertain, are shown with a selection of clear calls. For part of these data: Potencies beside an inconclusive call are fits to weak or partial responses and may not hold up. The source holds several records for some structures; these can differ, active in one and inactive in another. Active and inactive are the calls of the source. Unless noted, the call rests on the fitted dose curve; in most records, active means well fitted curve in the direction sought with a large enough effect in the repeat runs; inconclusive means weak or mixed curves; inactive means no such curve, though single readings can be large; an effect the other way counts as inactive or inconclusive.
# What was measured:
# [1] = qHTS assay to identify small molecule antagonists of the retinoid acid receptor (RAR) signaling pathway - cell viability counter screen (AID 1159551); further: nearly all actives have a fitted effect of over 35% in size; further: potency means the concentration at half of the fitted maximal effect
# Procedure, shortened: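 C3RL4 cells were seeded overnight at 37 C, then treated with compounds plus 1 uM (final) retinol for 6 h at 37 C. Viability was read as ATP by CellTiter-Glo luminescence after 30 min at room temperature.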
# [2] = qHTS assay to identify small molecule antagonists of the retinoic acid receptor (RAR) signaling pathway (AID 1159552; further: potency means the concentration at half of the fitted maximal effect; nearly all actives have a fitted effect of over 50% in size)
# Procedure, shortened: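 Retinol signaling pathway inhibitors screened in C3RL4 RARE-luciferase reporter cells seeded overnight at 37 C, then compounds added with 1 uM (final) retinol as pathway substrate. After 6 hr at 37 C, luciferase luminescence read after 30 min at room temperature.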
# [3] = qHTS assay to identify small molecule agonists of the retinoic acid receptor (RAR) signaling pathway (AID 1159553); conditions: C3RL4 RARE luciferase reporter, agonist, 6 h; activation: at 73.3 µM (top of the series) unless noted; further: potency means the concentration at half of the fitted maximal effect
# Procedure, shortened: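 C3RL4 cells carrying a RARE luciferase reporter were plated overnight at 37 C, then exposed to compounds in DMSO for 6 hr at 37 C and 5% CO2. Luminescence was read 30 min after luciferase reagent addition at room temperature.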
# [4] = qHTS assay to identify small molecule agonists of the constitutive androstane receptor (CAR) signaling pathway - cell viability counter screen (AID 1224836); further: potency means the concentration at half of the fitted maximal effect; nearly all actives have a fitted effect of over 45% in size
# Procedure, shortened: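 HepG2 cells stably carrying hCAR and a CYP2B6-2.2kb reporter; 15-concentration compounds plus PK11195 (final 0.75 uM), 23 hr at 37 C/5% CO2. Viability read by CellTiter-Fluor fluorescence.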
# [5] = target: Nuclear receptor subfamily 1 group I member 3 (Homo sapiens) (UniProt Q14994); test: qHTS assay to identify small molecule antagonists of the constitutive androstane receptor (CAR) signaling pathway (AID 1224838); further: potency means the concentration at half of the fitted maximal effect; nearly all actives have a fitted effect of over 40% in size
# Procedure, shortened: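 HepG2 cells stably co-transfected with hCAR and a CYP2B6-2.2kb luciferase reporter were seeded 4 h before compound addition at 15 concentrations. Cells were stimulated with 50 nM CITCO (final) for 24 h at 37 C; luciferase luminescence was then read.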
# [6] = target: Thyrotropin receptor (Homo sapiens) (UniProt P16473); test: qHTS assay to identify small molecule agonists of the thyroid stimulating hormone receptor (TSHR) signaling pathway (AID 1224843; calls by dose curve; further: nearly all actives have a fitted effect of over 45% in size; further: potency means the concentration at half of the fitted maximal effect; on activation: on the % scale 0 is the no-effect control and ±100 the full control effect); conditions: TSHR-HEK293 cells, cAMP HTRF, agonist mode, 30 min; activation: at 92.4 µM (top of the series) unless noted
# Procedure, shortened: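 TSHR-expressing HEK293 cells (800 per well) were exposed to compounds for 30 min at room temperature. cAMP was then detected by HTRF competition with cAMP-d2 and anti-cAMP cryptate, read after 1 h at room temperature. Fifteen concentrations, triplicate.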
# [7] = qHTS assay to identify small molecule agonists of the hypoxia (HIF-1) signaling pathway - cell viability counter screen (AID 1224844; calls by dose curve; further: potency means the concentration at half of the fitted maximal effect; nearly all actives have a fitted effect of over 50% in size)
# Procedure, shortened: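 HRE-bla ME-180 cells in medium with 0.5% dialyzed FBS were preincubated 5 hrs at 37C, exposed to compounds for 17 hrs, then viability was read as CellTiter-Glo luminescence after 30 min at room temperature, in the reporter wells.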
# [8] = qHTS assay to identify small molecule antagonists of the estrogen related receptor (ERR) signaling pathway from Tox21 library - cell viability counter screen (AID 1224834); further: potency means the concentration at half of the fitted maximal effect; nearly all actives have a fitted effect of over 30% in size
# Procedure, shortened: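 ERR reporter cells were plated 6 h before compound addition, then exposed to test compounds in DMSO for 17.5 h at 37 C. Viability was read as CellTiter-Fluor fluorescence after a 30-minute incubation at 37 C.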
# [9] = qHTS assay to identify small molecule antagonists of the constitutive androstane receptor (CAR) signaling pathway - cell viability counter screen (AID 1224837); further: potency means the concentration at half of the fitted maximal effect; nearly all actives have a fitted effect of over 45% in size
# Procedure, shortened: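 HepG2 cells stably expressing hCAR and a CYP2B6-2.2kb reporter were plated and pre-incubated 4 hr at 37 C/5% CO2, then given compounds at 15 concentrations plus 50 nM CITCO (final). After 23 hr, viability was read by CellTiter-Fluor fluorescence.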
# [10] = target: Nuclear receptor subfamily 1 group I member 3 (Homo sapiens) (UniProt Q14994); test: qHTS assay to identify small molecule agonists of the constitutive androstane receptor (CAR) signaling pathway (AID 1224839); further: potency means the concentration at half of the fitted maximal effect; nearly all actives have a fitted effect of over 15% in size
# Procedure, shortened: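 HepG2 cells stably co-transfected with hCAR and a CYP2B6-2.2kb luciferase reporter; compounds at 15 concentrations with 0.75 uM PK11195 present. After 24 hr at 37 C, luciferase read by ONE-Glo luminescence.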
# [11] = qHTS assay to identify small molecule antagonists of the estrogen related receptor signaling pathway with the pleiotropic PPARgamma coactivator (PGC) from Tox21 10K library (AID 1224841; call rule not given here; further: actives are mostly falling curves and most rising ones were filed inactive; nearly all actives have a fitted effect of over 50% in size; further: potency means the concentration at half of the fitted maximal effect)
# Procedure, shortened: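 PGC/ERR reporter cells were seeded at 2,000 cells/well and held 6 hours at 37 C/5% CO2 before pin-tool addition of compounds in DMSO. After 18 hours at 37 C, One-Glo was added and luminescence read after 30 minutes at room temperature.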
# [12] = qHTS assay to identify small molecule antagonists of the estrogen related receptor (ERR) signaling pathway (AID 1224819; further: potency means the concentration at half of the fitted maximal effect; nearly all actives have a fitted effect of over 50% in size)
# Procedure, shortened: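 ERR reporter cells were plated at 2,000 cells/well and left 6 h at 37 C/5% CO2 before pin-tool transfer of compounds in DMSO. After 18 h at 37 C, One-Glo was added and luminescence was read 30 min later at room temperature.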
# [13] = qHTS assay to identify small molecule agonists of the estrogen related receptor (ERR) signaling pathway (AID 1224820); conditions: ERR reporter cell line, luciferase agonist mode; at 46.1 µM (top of the series); further: on the % scale 0 is the no-effect control and ±100 the full control effect
# Procedure, shortened: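 Quantitative HTS of the LOPAC library used NTP ERR reporter cells treated 18 h at 37 C. Signal is luminescence after One-Glo addition and a 30 min room-temperature incubation.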
# [14] = qHTS assay to identify small molecule agonists of the estrogen related receptor signaling pathway with the pleiotropic PPARgamma coactivator (PGC) (AID 1224823); further: potency means the concentration at half of the fitted maximal effect
# Procedure, shortened: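 Cell-based luciferase assay in the NTP-supplied PGC/ERR line, 2,000 cells/well; 18 h compound exposure at 37 C, luminescence after One-Glo.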
# [15] = target: Luciferin 4-monooxygenase (Photinus pyralis) (UniProt P08659); test: qHTS assay to identify small molecule inhibitors of firefly luciferase (AID 1224835); further: potency means the concentration at half of the fitted maximal effect; nearly all actives have a fitted effect of over 25% in size
# Procedure, shortened: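 Quantitative HTS format; KM concentrations of both substrates. Purified P. pyralis FLuc activity quantified from luminescence images.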
# [16] = qHTS assay to identify small molecule agonists of the estrogen related receptor signaling pathway with the pleiotropic PPARgamma coactivator (PGC) from Tox21 10K library (AID 1224842); further: potency means the concentration at half of the fitted maximal effect; nearly all actives have a fitted effect of over 15% in size
# Procedure, shortened: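 PGC/ERR reporter cells (NTP line) were seeded 2,000 per well, rested 6 h at 37 C/5% CO2, then pin-dosed with compounds in DMSO for 18 h at 37 C; luciferase read by One-Glo luminescence after 30 min at room temperature.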
# [17] = qHTS assay to identify small molecule antagonists of the estrogen related receptor signaling pathway with the pleiotropic PPARgamma coactivator (PGC) from Tox21 10K library - cell viability counter screen (AID 1224840; active means well fitted cell-killing curve with a large enough effect in the repeat runs, not every such curve was filed as active; inconclusive means weak or mixed curves, or effect the other way; inactive means no such curve, though single readings can be large or run the other way; further: potency means the concentration at half of the fitted maximal effect; nearly all actives have a fitted effect of over 40% in size)
# Procedure, shortened: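 PGC/ERR cells were seeded at 2,000 cells/well and left 6 hours at 37 C/5% CO2 before pin-tool addition of compounds in DMSO. After 17.5 hours at 37 C, CellTiter-Fluor was added and fluorescence read 30 minutes later.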
# [18] = qHTS assay to identify small molecule antagonists of the estrogen related receptor (ERR) signaling pathway - cell viability counter screen (AID 1224818);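 further: potency means the concentration at half of the fitted maximal effect; viability measured after 17.5 h of compound exposure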
# Procedure, shortened: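 ERR reporter cells plated 6 h at 37 C/5% CO2, then compounds in DMSO pin-transferred and incubated 17.5 h at 37 C. Viability read as CellTiter-Fluor fluorescence after 30 min at 37 C.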
# [19] = qHTS assay to identify small molecule antagonists of the estrogen related receptor signaling pathway with the pleiotropic PPARgamma coactivator (PGC) cell viability counter screen (AID 1224822; further: potency means the concentration at half of the fitted maximal effect)
# Procedure, shortened: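 PGC/ERR cells were seeded at 2,000 cells/well, rested 6 h at 37 C/5% CO2, then given compounds in DMSO by pin tool and incubated 17.5 h at 37 C. Viability came from CellTiter-Fluor fluorescence after 30 min.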
# Tags describe the fitted curve by direction and shape or compound fluorescence and quenching.
# Chain of UniProt Q14994 (Q14994 whole entry, looked up): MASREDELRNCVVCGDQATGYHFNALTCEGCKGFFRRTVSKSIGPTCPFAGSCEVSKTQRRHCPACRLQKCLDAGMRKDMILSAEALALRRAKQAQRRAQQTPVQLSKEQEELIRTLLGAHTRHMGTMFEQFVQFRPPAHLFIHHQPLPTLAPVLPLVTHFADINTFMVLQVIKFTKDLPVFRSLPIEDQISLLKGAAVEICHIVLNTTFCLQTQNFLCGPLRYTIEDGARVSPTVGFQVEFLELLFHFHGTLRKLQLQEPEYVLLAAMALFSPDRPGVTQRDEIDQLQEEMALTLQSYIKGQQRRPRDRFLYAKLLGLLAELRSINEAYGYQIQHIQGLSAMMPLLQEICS
# Chain of UniProt P08659 (P08659 whole entry, looked up): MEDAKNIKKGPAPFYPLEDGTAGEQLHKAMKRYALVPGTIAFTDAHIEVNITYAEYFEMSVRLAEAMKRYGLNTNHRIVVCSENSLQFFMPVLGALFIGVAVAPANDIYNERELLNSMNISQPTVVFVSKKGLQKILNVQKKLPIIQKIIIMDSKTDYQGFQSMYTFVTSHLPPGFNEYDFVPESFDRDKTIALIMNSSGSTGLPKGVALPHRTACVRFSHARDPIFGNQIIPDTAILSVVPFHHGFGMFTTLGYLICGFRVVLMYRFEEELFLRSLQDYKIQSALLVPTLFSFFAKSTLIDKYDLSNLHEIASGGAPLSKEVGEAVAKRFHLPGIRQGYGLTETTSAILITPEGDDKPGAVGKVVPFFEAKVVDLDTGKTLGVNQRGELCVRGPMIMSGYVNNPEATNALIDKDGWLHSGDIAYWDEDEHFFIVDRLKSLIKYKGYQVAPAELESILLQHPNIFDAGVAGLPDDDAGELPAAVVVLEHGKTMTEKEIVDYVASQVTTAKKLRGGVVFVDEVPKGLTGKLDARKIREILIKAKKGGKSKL
# Chain of UniProt P16473 (P16473 whole entry, looked up): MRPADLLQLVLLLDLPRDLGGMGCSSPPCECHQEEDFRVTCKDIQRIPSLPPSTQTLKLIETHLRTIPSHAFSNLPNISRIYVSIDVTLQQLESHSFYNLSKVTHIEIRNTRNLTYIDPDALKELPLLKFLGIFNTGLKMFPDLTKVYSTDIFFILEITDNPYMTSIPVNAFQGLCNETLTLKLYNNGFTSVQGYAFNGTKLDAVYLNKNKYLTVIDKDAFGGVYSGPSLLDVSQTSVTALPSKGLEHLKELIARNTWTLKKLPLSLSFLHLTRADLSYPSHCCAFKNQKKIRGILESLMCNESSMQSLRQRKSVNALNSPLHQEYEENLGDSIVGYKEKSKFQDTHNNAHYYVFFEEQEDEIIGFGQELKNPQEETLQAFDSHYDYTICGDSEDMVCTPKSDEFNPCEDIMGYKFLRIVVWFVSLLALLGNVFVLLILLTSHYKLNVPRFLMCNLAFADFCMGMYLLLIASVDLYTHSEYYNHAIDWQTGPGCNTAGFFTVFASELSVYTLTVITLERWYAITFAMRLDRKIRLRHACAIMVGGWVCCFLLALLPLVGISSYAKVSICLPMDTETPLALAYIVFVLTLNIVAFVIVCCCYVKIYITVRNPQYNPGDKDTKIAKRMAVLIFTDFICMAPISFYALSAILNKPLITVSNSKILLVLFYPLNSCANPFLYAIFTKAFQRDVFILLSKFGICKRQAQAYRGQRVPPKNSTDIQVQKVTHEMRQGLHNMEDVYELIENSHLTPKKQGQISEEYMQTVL
compound,measurement,setting,value
CCC(C)Nc1ccc(NC(C)CC)cc1 (stereo not given),Potency,[1],active: 39.3 µM
same,Potency,[2],inconclusive: 44.1 µM [inhibitor]
same,Potency,[3],inconclusive: 69.9 µM [inhibitor]
same,Potency,[4],active: 19.7 µM
same,Potency,[5],active: 27.8 µM
same,activation,[6],inconclusive: 1.28%
same,Potency,[7],active: 12.5 µM
CCCCCCCCCC,Potency,[1],inactive
CC(C)=CCNc1ncnc2c1ncn2[C@@H]1O[C@H](CO)[C@@H](O)[C@H]1O,Potency,[1],active: 13.3 µM
same,Potency,[2],active: 23.7 µM
same,Potency,[3],"inconclusive: 11.9 µM [inhibitor, partial curve]"
same,Potency,[8],"inconclusive: 29.8 µM [cytotoxic, partial curve]"
same,Potency,[4],"inconclusive: 5.31 µM [cytotoxic, full curve]"
same,Potency,[9],active: 3.35 µM
same,Potency,[5],"inconclusive: 33.5 µM [inhibitor, single point]"
same,Potency,[10],"inconclusive: 11.9 µM [activator, partial curve]"
same,Potency,[11],inactive
Nc1nc(N)c2nc(-c3ccccc3)c(N)nc2n1,Potency,[1],"inconclusive: 77.8 µM [cytotoxic, partial curve, poor fit]"
same,Potency,[3],"active: 17.4 µM and inconclusive: 54.5 µM [activator, partial curve, poor fit]"
same,Potency,[12],inconclusive: 28.7 µM [inhibitor]
same,activation,[13],inactive: -47.7%
same,Potency,[14],"inconclusive: 29.8 µM [activator, partial curve, poor fit]"
same,Potency,[8],"inconclusive: 69.4 µM [cytotoxic, single point] and inconclusive: 68.6 µM [cytotoxic, partial curve, poor fit]"
same,Potency,[15],"inconclusive: 19.5 µM [inhibitor, partial curve]"
same,Potency,[4],"inconclusive: 55.1 µM [rising, partial curve, poor fit] and inconclusive: 68.6 µM [rising, partial curve, poor fit]"
same,Potency,[10],"inconclusive: 34.8 µM [activator, partial curve] and inconclusive: 38.6 µM [activator, partial curve]"
same,Potency,[16],"inconclusive: 69.4 µM [activator] and inconclusive: 61.1 µM [activator, single point]"
same,Potency,[7],inconclusive: 55.6 µM [cytotoxic]
[Cl][Bi]([Cl])([c]1ccccc1)([c]1ccccc1)[c]1ccccc1,Potency,[1],active: 54.2 µM
same,Potency,[3],"inconclusive: 1.21 µM [inhibitor, full curve]"
same,Potency,[15],active: 12.6 µM
same,Potency,[4],active: 21.6 µM
same,Potency,[5],active: 12.1 µM
same,Potency,[6],active: 2.16 µM
same,Potency,[7],active: 19.4 µM
Oc1ccc(C2(c3ccc(O)cc3)CC3CC2C2CCCC32)cc1 (stereo not given),Potency,[1],"inconclusive: 29.4 µM [cytotoxic, partial curve, poor fit]"
same,Potency,[3],"inconclusive: 58.7 µM [inhibitor, single point]"
same,Potency,[4],inconclusive: 65.9 µM [cytotoxic]
same,Potency,[9],active: 52.3 µM
same,Potency,[11],"inconclusive: 41.6 µM [falling, partial curve]"
CCCCCCCCCCCCCCCC[N+](C)(C)Cc1ccccc1,Potency,[1],active: 79.4 µM and active: 62.2 µM and active: 29.8 µM
same,Potency,[3],"inconclusive: 31.6 µM [inhibitor, partial curve, poor fit] and inconclusive: 27.8 µM [inhibitor, full curve] and inconclusive: 26.6 µM [inhibitor, partial curve]"
same,Potency,[15],"inconclusive: 81.1 µM [inhibitor, single point]"
same,Potency,[4],"inconclusive: 63.1 µM [cytotoxic, partial curve] and inconclusive: 49.4 µM [cytotoxic]"
same,Potency,[9],"inconclusive: 70.8 µM [cytotoxic, single point]"
same,Potency,[5],"inconclusive: 70.8 µM [inhibitor, single point] and inconclusive: 62.2 µM [inhibitor, single point]"
same,Potency,[17],active: 63.1 µM and active: 49.4 µM
same,Potency,[7],"inconclusive: 21.3 µM [cytotoxic, partial curve]"
O=C(Nc1ccc([N+](=O)[O-])cc1Cl)c1cc(Cl)ccc1O,Potency,[1],"inconclusive: 1.93 µM [cytotoxic, full curve, poor fit] and inconclusive: 1.03 µM [cytotoxic, partial curve, poor fit]"
same,Potency,[3],active: 43.3 nM and active: 82 nM
same,Potency,[18],"inconclusive: 1.19 µM [cytotoxic, full curve]"
same,Potency,[19],inconclusive: 1.39 µM [cytotoxic]
same,Potency,[8],active: 3.86 µM and active: 1.3 µM
same,Potency,[17],"inconclusive: 1.46 µM [cytotoxic, full curve]"
S=C(SSSSSSC(=S)N1CCCCC1)N1CCCCC1,Potency,[1],"inconclusive: 0.379 µM [cytotoxic, full curve, poor fit]"
same,Potency,[3],"inconclusive: 0.601 µM [activator, single point]"
same,Potency,[8],"inconclusive: 0.213 µM [cytotoxic, full curve, poor fit]"
same,Potency,[9],active: 7.56 µM
same,Potency,[17],"inconclusive: 0.268 µM [cytotoxic, full curve, poor fit]"
same,Potency,[7],active: 3.41 µM
